Source: the supplement of paper PMC10338343
± gives the standard deviation. Whole data set: some 6,600 sequences, median “pre-steady-state target cleavage rate” near 0.07, cut for the highest 2% near 0.72. Only a part is listed here, and it is no random draw.

Test system: MIWI (PIWIL1) piRISC loaded with Kctd7 piRNA (30 nt)
Assay: pre-steady-state target cleavage rate (min^-1); MIWI and MILI are mouse PIWI proteins and EfPiwi is from a freshwater sponge; tags in brackets are library labels; higher = faster piRNA-guided slicing of the target
Settings: guide: Kctd7 piRNA 5'p-UGUUAAUCUCUCAGAGAAGGUGACAGUGAU; auxiliary factor: 500 nM mouse GTSF1
Summary of the method: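 For Cleave-'n-Seq, a transcribed, DNA-blocked target RNA library […] met 1 nM active affinity-purified piRISC with one synthetic guide at 33 °C for 0–8 or 0–960 min in HEPES–potassium acetate buffer, with or without 500 nM GTSF1 partner protein. Uncleaved targets were sequenced and normalised to depth and weakly complementary targets, with three trials pooled and k3 capped at 0.0001 min^-1. A burst-and-steady-state fit supplied the pre-steady-state cleavage rate.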
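Further: 1 nM active piRISC with 0.1 nM target library at 33 °C single turnover.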

Sequence	pre-steady-state target cleavage rate
UAGUGACACAGCUUGUCUGAGAGAUUAACA	0.0643 ± 0.01
UAGUGACUCACCUACUCUGAGACAUUAACA	0.0336 ± 0.0048
UAGUCUGUCACGAUCUCUGAGAGAUUAACA	0.485 ± 0.029
UAGUGACUCUCCUUCACUGAGAGAUUAACA	0.069 ± 0.01
AUCACUGUCACCAUCUCUGAGACAUUAACA	0.0987 ± 0.015
UAGUGUGUCACCUUCUCUGAGAGAUUAACC [g2:g25:cont:t1C]	0.367 ± 0.029
AACACUGUCACCUUCUCUGAGACAUUAACA	0.158 ± 0.012
UAGUGACAGUGCUACUCUGAGAGAUUAUCA	< 0.0001
AUGUCUGUCACCUUCUCUGAGAGAUUAACA	0.604 ± 0.024
UAGACUGUCACGUUCUCUCAGAGAUUAACA	0.0604 ± 0.0045
UAGUGACAGACCUUCUCUGAGAGAUUAUCA	0.0948 ± 0.017
UACACUGUCACCUACUCUCAGAGAUUAACA	0.061 ± 0.011
AUCACUGUCACCUUCUCAGAGAGAUUAUCA	0.176 ± 0.027
UUCACUGUCACCUACUGUGAGAGAUUAACA	0.359 ± 0.023
UAGUGUGACAGCUUCUCUGAGAGAUUAACA	0.265 ± 0.021
UAGUGACAGUGGAAGUCUGAGUGAUUAACA	< 0.0001
UAGACUGUCACCUUCUCUCAGACAUUAACA	0.0524 ± 0.0048
UAGUGACUCACCUUGUCUGAGAGAUUUACA	0.0403 ± 0.014
UAGUGACAGUGCUACUCUGAGAGUUUAACA	< 0.0001
UAGACUGUCACCUUCUCUGAGAGCAUUAACA	0.38 ± 0.025
UAGUGACUCACCUUCUCUGAGAGCAUUAACA	0.297 ± 0.034
UUCACUGUCACCUUCAGAGAGAGAUUAACA	0.0704 ± 0.028
UAGUGUGUCUCCUUCUCUGAGAGAUUUUGA	0.0152 ± 0.0044

Sequence	pre-steady-state target cleavage rate
AUCACUGUCAUCCUUCUCUGAGAGAUUAACA	0.354 ± 0.025
UAGUGACAGACCUUCUCUGAGAGAUUGACA	0.101 ± 0.016
UAGACUCUCACCUUCACUGAGAGAUUAACA	0.279 ± 0.02
AUCACUGACACCUUCUGUGAGAGAUUAACA	0.443 ± 0.018
UAGACUGUCACCUUCUCUGAGAGAUUAACU [g2:g27:cont:t1U]	0.433 ± 0.054
UUCACUGUCACCUUCUCUGACAGAAUAACA	0.0224 ± 0.0065
UAGACUGACACCUUCUCAGAGAGAUUAACA	0.219 ± 0.014
UAGACUGUCAUCUUCUCUGAGAGAUUAACA	0.848 ± 0.051
UUCACUGUCACCUUCUCUGAGUGAUUUACA	0.0357 ± 0.0069
UUCACUGUCACCUUCUCUGAGAGUAUAAGA	0.0364 ± 0.013
AUCACUGUCACCUUCUCAGAGAGAUUAACA	0.457 ± 0.032
UUCACAGUCAGCUUCUCUGAGAGAUUAACA	0.692 ± 0.027
AUCACUGUCACGUUCUCUGAGAGAUUAUGA	0.0579 ± 0.013
UACACUGUCACCCUUCUCUGAGAGAUUAACA	0.428 ± 0.031
AUCACUGUCACCUUCUCAGAGAGUUUAACA	0.371 ± 0.076
UAGUGACAGUCUUUCUCUGAGAGAUUAACA	0.0601 ± 0.0069
AAGUCUGUCACCUUCUCUGAGAGAUUUUGA	0.0455 ± 0.013
UACACUGUCACCUUCUCUGAGUCUUUAACA	0.0259 ± 0.0095
UAGUGAGUCACCUUCUCUGAGAGACUAACA	0.22 ± 0.025
UAGACUGUCUCCUUCUCUGUGAGAUUAACA	0.218 ± 0.014
UAGUCUGUGACCUUCUCUGAGAGAUUUACA	0.243 ± 0.031
UUCACUGUCACCUUCUCUGUGAGAUAUUGA	0.0105 ± 0.0045
UAGUGAGUCACCUUCUCGGAGAGAUUAACA	0.218 ± 0.017

Sequence	pre-steady-state target cleavage rate
AUCACUGUCACCUACUGUGAGAGAUUAACA	0.464 ± 0.026
UAGUGAGUCACCUUCUCUGAGAGAGUAACA	0.368 ± 0.059
UAGUCUGUCACCUUCUCUGAGAGAAUUAACA	0.57 ± 0.1
UUCACUCUGACCUUCUCUGAGAGAUUAACA	0.455 ± 0.025
UUCAGUGUCACCUUCUCUGAGAGAUUAUGA	0.0602 ± 0.014
UUCACUGUCACCUUCACUGAGAGAUAAACA	0.247 ± 0.029
UAGUGUGUCACCUUCUCUCAGAGAUUAUCA	0.0377 ± 0.011
UUCACUGUCUCCUUCUCUGAGAGAUUAUCA	0.231 ± 0.035
UAGACUGUCACCAUCUCUGAGAGAUUAUGA	0.0129 ± 0.0051
UAGUGACACUCCUUCACUGAGAGAUUAACA	0.165 ± 0.018
AUCAGUGUCACCUUCACUGAGAGAUUAACA	0.569 ± 0.03
UAGACUGUCACCUUCACUGAGAGAUUUACA	0.361 ± 0.048
UUCACUGUCACCUUCUCUGUGAGUUUAACA	0.117 ± 0.014
UACACUGUCACCUUCUCUGAGAGAUUUAGA	0.0777 ± 0.022
UACACAGUCACCUUCUCUGAGAGAUAUUGA	0.039 ± 0.015
UAGUGAGUCUCCUUCUCUGAGAGAUUUACA	0.0124 ± 0.0051
UACACUGUCACCUUCUCUCAGAGAUUAUCA	0.0407 ± 0.011
UACACUGUCCCUUCUCUGAGAGAUUAACA	0.609 ± 0.04
UACACUGACACCUUCUCUGAGAGUUUAACA	0.904 ± 0.3
UACACUGUCACCUUCUCUGAGAGUUAUUGA	0.134 ± 0.039
UAGACUGUCUCCUUCUCUGAGAGAUAAACA	0.354 ± 0.048
UAGUGACUCAACCUUCUCUGAGAGAUUAACA	0.173 ± 0.018
UAGUGACAGUCCAUUCUCUGAGAGAUUAACA	0.127 ± 0.015

Sequence	pre-steady-state target cleavage rate
UAGUGAGUGACCUUCUCUGAGAGAAUAACA	0.141 ± 0.028
UAGUGACAGACCUUCUCUGUGAGAUUUACA	0.0147 ± 0.0053
UAGUGACACACCCUUCUCUGAGAGAUUAACA	0.153 ± 0.021
UAGUGUGUCACCUUCUCUGGGAGAUUAACA	0.329 ± 0.024
UUCACUGUCACGUACUCUGAGAGAUUAACA	0.441 ± 0.033
UAGACUGUCACCUUGUGUGAGAGAUUAACA	0.133 ± 0.0079
UAGUGUGUCACCUUCACUGAGAGAUUAAGA	0.11 ± 0.026
UAGUGUGUCACCUUCUCUGAGAAUUAACA	0.0771 ± 0.028
UAGUCAGUCACCUUCUCUGAGAGAUAAACA	0.343 ± 0.024
UAGACUGUCACCUUCACUGAGAGAUAUUGA	0.0458 ± 0.011
UAGUGACUGACCUUCUCUGAGAGAUUUACA	0.236 ± 0.03
UACACUGUCACCUUCUCGGAGAGAUUAACA	0.289 ± 0.023
UAGUGACACACCUUCUCUGAGAGAUUUACA	0.279 ± 0.038
UAGUGACACACCUUCUCAGAGAGAUUUACA	0.0386 ± 0.0096
UAGACUGUCACCAUCUCUGAGAGAUAAACA	0.289 ± 0.033
UAGUGUGUCACCUUCUCUGGAGAUUAACA	0.195 ± 0.018
UACACUGUCACCAACUCUGAGAGAUUAACA	0.391 ± 0.033
UACACAGUCACCUUCUCUGAGAGAUUUACA	0.398 ± 0.053
UACACUGUCACCUUCUCUGAGAGAUUAUGA	0.0837 ± 0.024
UAGUGACACACCUUCUCUGAGAAGAUUAACA	0.0206 ± 0.0043
AUCACUGUCAGGUUCUCUGAGAGAUUAACA	0.653 ± 0.043
UUCACUGUCACCUUGUCUGAGAGUUUAACA	0.422 ± 0.077
